The whole screen tested about 46,000 compounds, of which about 60 (0.1%) were called active. Not shown: some 3% with an inconclusive outcome. The call rests on the fitted dose curve; in most records, active means well fitted inhibition curve with a large enough effect; inconclusive means small, poorly fitted or top-dose-only effect; inactive means no such curve, though single readings can be large or run the other way. Some of the results follow.
Experiment: Primary qHTS assay for Inhibitors of ovarian cancer metastasis using an organotypic tumor microenvironment (TME) model. Further: nearly all actives have a fitted effect of over 65% in size.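 On activity change, negative = inhibition: plate controls were DMSO wells for no effect and tomatine positive control wells for full effect.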
Details: SKOV3ip1-GFP adhesion/invasion on 3D omental model, fluorescence; series mostly up to 45.8 µM; activity change, negative = inhibition: at the top concentration
Procedure, shortened: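 Adhesion/invasion was scored as fixed GFP-labeled SKOV3ip1 cell counts (488/509 nm), normalized to DMSO and tomatine controls. Cancer cells in serum-free medium, with four compound doses (0.36-46 umol/L), sat 2 hr at RT then 16 hr at 37 C on a 48 hr fibroblast/mesothelial/ECM culture.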

Activity change, negative = inhibition, inactive:
Cc1ccc(S(=O)(=O)N2CCCc3cc(NS(=O)(=O)c4ccc(F)cc4)ccc32)cc1 -23.8%
COc1cccc(NC(=O)Cn2c(=O)n(Cc3ccc(C(=O)NCc4ccc5c(c4)OCO5)cc3)c(=O)c3ccccc32)c1 39.2%
CN(C)c1ccc(CNC(=O)C2CCN(S(=O)(=O)c3ccc4c(c3)oc(=O)n4C)CC2)cc1 14.2%
CCOC(=O)C1=C(O)C(=O)N(Cc2ccccc2)C1 17.6%
O=c1c(O)c(-c2ccc(O)c(O)c2)oc2cc(O)cc(O)c12 -5.68%
COc1ccc(C2c3c(n(C)c4ccccc34)C(=O)N2CC(=O)Nc2ccc(C)cc2Cl)cc1 (stereo not given) -8.24%
CCc1ccc(CNC(=O)Cn2nc(-c3ccc(Cl)cc3)ccc2=O)cc1 -5.26%
CCN(CC)S(=O)(=O)c1ccc(-c2csc(=Nc3cccc(C(F)(F)F)c3)n2Cc2ccc3c(c2)OCO3)cc1 5.64%
O=C(c1cncc(Br)c1)N1CCC(N2CCCC2)CC1 3.57%
Cc1cccc(C(=O)N2CCCCC2CCN2CCCCC2)c1 (stereo not given) -5.07%
O=C(Nc1ccc(F)cc1)c1oc2ccccc2c1NC(=O)C1CCCCC1 -9.49%
O=C(NC1CCCCC1)c1ccc(Cn2c(SCc3ccccc3)nc3cccnc32)cc1 9.04%
COc1ccc(C2=N[C@H](c3ccc(Cl)cc3)[C@H](c3ccc(Cl)cc3)N2C(=O)N2CCNC(=O)C2)c(OC(C)C)c1 24.8%
COc1ccc(C(=O)N2c3nc(-c4ccco4)nn3C3(CCCCC3)[C@@H]3CCCC[C@@H]32)cc1OC 3.89%
Cc1cnc(C(=O)O)c[n+]1[O-] 0.149%
COCCCn1c(=O)c2sccc2n2c(CCCC(=O)Nc3ccc(F)c(F)c3)nnc12 0.94%
Cc1ccccc1-c1nc2scc(CCNC(=O)C(=O)Nc3ccc(F)cc3F)n2n1 -0.419%
Nc1c(C(=O)Nc2cccc(F)c2)sc2nc(-c3cccs3)ccc12 4.74%
COc1ccc(CNC(=O)CCC2N=C3c4ccccc4N=C(SCc4ccc(F)cc4)N3C2=O)cc1 (stereo not given) 2.35%
COc1ccc(OC)c(NC(=O)c2c(NCc3ccc(OC)c(OC)c3)sc3c2CCC(C)C3)c1 (stereo not given) -2.94%
O=C(C1CCCCC1)N(Cc1cccnc1)c1nc2c(F)cc(F)cc2s1 0.642%
Cc1ccccc1OCCCCn1c(C2CC(=O)N(c3ccccc3Cl)C2)nc2ccccc21 (stereo not given) 5.8%
O=C(CSc1nc2c([nH]c3ccccc32)c(=O)n1-c1ccccc1)c1ccc(Cl)cc1 22.9%
CCCn1c(CCC(=O)Nc2cccc(C)c2C)nc2cccnc21 -5.81%
Cc1ccc(Nc2c(-c3ccc(N4CCOCC4)cc3)nc3c(C)cccn23)cc1 -6.87%
COc1ccc(CC(=O)Nc2ccc3nc(Nc4cccc(Cl)c4)cc(C)c3c2)cc1 -9.19%
COc1ccc(CCNC(=O)c2cc3c(-c4ccc(OC)c(OC)c4)nn(C)c3s2)cc1OC -6.57%
Cc1cc(-c2ccc(S(=O)(=O)Nc3cc(Cl)ccc3C)s2)on1 -28.1%
COCCn1c(SCC(=O)Nc2cccc(C)c2C)nc2c(oc3ccccc32)c1=O -12.3%
CCOC(=O)c1c(C)[nH]c(CCC(=O)NCc2cccc(OC)c2)c1C -20%
Cc1ccc(Cn2c(CO)cnc2SCc2cccc(F)c2)cc1 65.7%
Cc1cccc(CC(=O)NC2CC(=O)N(c3ccccc3)C2)c1 (stereo not given) -7.65%
COc1ccc(NC(=O)CCc2nc3cccnc3n2-c2ccccc2)cc1Cl 5.11%
COC(=O)c1ccc(Cl)cc1NC(=O)NC(C)c1c(-n2cccc2)sc(C)c1C (stereo not given) -1.75%
Cc1ccccc1CSCCNC(=O)C1CCN(S(=O)(=O)Cc2ccccc2)CC1 -16%
Cc1ccc(O)c(NC(=O)c2cc(-c3ccc(F)cc3)on2)c1 -1.04%
CC(C)c1ccc(C2c3c(oc4ccc(Cl)cc4c3=O)C(=O)N2CCCN2CCOCC2)cc1 (stereo not given) -0.331%
COc1cc(NC(=O)CN2C(=O)C(c3ccc(Cl)cc3)=NC23CCCCC3)cc(OC)c1 -7.86%
CC(=O)c1ccc(NC(=O)Cn2c(=O)cc(C)c3c(C)nn(-c4cccc(F)c4)c32)cc1 -8.43%
CCOC(=O)c1cccc(NC(=O)CCn2c(=O)oc3ccccc32)c1 1.41%
CCC(Oc1ccccc1)C(=O)Nc1cccc(OCc2cc(=O)n3cccc(C)c3n2)c1 (stereo not given) 10.5%
Cc1cccc(-c2nc3c4c(-c5ccccc5)c(-c5ccccc5)oc4ncn3n2)c1 6.33%
Cc1ccc(C2N=C(N)Nc3nc4ccccc4n32)cc1 (stereo not given) 9.92%
CCN(CC)c1ccc(C(=O)NCc2nc3cccnc3n2Cc2ccc(C)cc2)cc1 -8.28%
COc1cccc(NC(=O)CSc2nc(C)c(Cc3ccccc3)c(=O)[nH]2)c1 1.51%
CCC1CCc2nc3sc(C(=O)Nc4cccc(F)c4)c(N)c3cc2C1 (stereo not given) 4.53%
O=C(NCC(c1cccnc1)N1CCN(c2ccccc2F)CC1)c1ccc(F)cc1 (stereo not given) 5.59%
COc1ccc(OC)c(CNC(=O)c2c(C)oc3ncn(CC(C)C)c(=O)c23)c1 0.0303%
CCCCOc1ccc(C2=NC(c3cccs3)=Nc3ccc(OC)cc3N2)cc1 -0.955%
COc1cccc2sc(N(Cc3cccnc3)C(=O)c3ccco3)nc12 2.41%
Cc1cccc(NC(=O)c2cnc3sc(N4CCCC4)nn3c2=O)c1C 3.29%
CSCCC(NS(=O)(=O)c1ccc2c(c1)oc(=O)n2C)C(=O)Nc1ccc(F)c(Cl)c1 (stereo not given) -0.595%
COc1ccc(NC(=O)c2c(NCc3cccc(F)c3)sc3c2CCC3)c(OC)c1 -2.37%
Cc1ccccc1C(=O)Nc1ccc(S(=O)(=O)N2CCC(c3nc4ccccc4s3)CC2)cc1 -9.61%
Cc1cc(C)cc(NC(=O)Cc2csc(COc3cccc(C)c3)n2)c1 17.8%
O=C(CN1C=NS(=O)(=O)c2ccccc21)Nc1ccccc1F 9.22%
O=C(NCc1ccccc1F)C1CCCN(C(=O)N2CCOc3ccccc32)C1 (stereo not given) -4.82%
CCOc1ccc(S(=O)(=O)N(CC(=O)Nc2ccc(OC)cc2OC)c2ccccc2)cc1 2.83%
CCCNC(=O)C1CCC(Cn2c(=O)c3sccc3n(CC(=O)NCc3ccccc3)c2=O)CC1 (stereo not given) 5.04%
CCOC(=O)c1ccc(NC(=O)CCCc2nc(-c3cc(OC)c(OC)c(OC)c3)no2)cc1 2.22%
COc1ccc(N2C(=O)CS(=O)(=O)C23C(=O)N(Cc2ccccc2F)c2ccccc23)cc1Cl (stereo not given) -5.97%
Cc1nn(C(C)C(=O)N2CCN(c3ccc(F)cc3)CC2)c(=O)c2c1sc1ccccc12 (stereo not given) 2.29%
COc1ccc(Br)cc1CNC(=O)c1cc(=O)[nH]c2ccc(S(=O)(=O)N3CCCCC3C)cc12 (stereo not given) 0.933%
CCOc1ccc(C(=O)Nc2cccc(C(=O)OCc3cc(=O)n4cc(C)sc4n3)c2)cc1 -4.15%
Cc1cccc2nc(Cn3c(=O)n(-c4ccc(Cl)cc4)c(=O)c4c5c(sc43)CCC5)cc(=O)n12 -1.23%
COc1ccc(S(=O)(=O)N(CC(=O)N2CCc3ccccc3C2)c2ccc(C)cc2)cc1 5.65%
COc1ccc(OC)c(CNS(=O)(=O)c2ccc3c(c2)oc(=O)n3C)c1 -5.1%
Cc1cccc(C)c1NC(=O)C1CCCN1S(=O)(=O)c1ccccc1 (stereo not given) 4.85%
CC(=O)N1c2ccc(S(=O)(=O)N3CCC(C(=O)Nc4cccc(Cl)c4C)CC3)cc2CC1C (stereo not given) 10.6%

outcome, inactive:
CCc1ccc(-c2cc(C)no2)cc1S(=O)(=O)NCc1ccco1
Cc1ccc2nc(NC(=O)c3ccc(S(=O)(=O)N4CCCc5ccccc54)cc3)sc2c1
CN1CCN(C2(CNC(=O)c3ccc([N+](=O)[O-])cc3)CCCCC2)CC1
Cc1cc(C)nc(NS(=O)(=O)c2ccc(NC(=O)c3cc(=O)c4ccc(C)c(C)c4o3)cc2)n1
CCN1CCOC(=O)C1CC(=O)Nc1ccc(C)c(Cl)c1 (stereo not given)
Nc1c(C(=O)NCCc2ccccc2)nnn1CC(=O)Nc1ccc(Cl)cc1
CCOC(=O)C1CCCN(c2c(C(=O)c3ccc(C)cc3)cnc3ccc(OCC)cc23)C1 (stereo not given)
Cc1ccc(Cl)cc1N1CCN(C(=O)CCn2c(=O)c3cccn3c3cccnc32)CC1
Cc1oc2ncn(C)c(=O)c2c1C(=O)N(Cc1ccccc1)C(C)C
O=C(CC(c1cccs1)N1Cc2ccccc2C1=O)Nc1ccc(F)cc1F (stereo not given)
COc1ccc(C(CNC(=O)Cc2ccc(Cl)cc2)N2CCOCC2)cc1 (stereo not given)
O=C(CCc1ccccc1)N1CCc2c([nH]c3ccccc23)C1c1ccc(Cl)cc1 (stereo not given)
Cc1oc2ccc(O)c(CN3CCCCC3C)c2c1C(=O)Nc1ccccc1 (stereo not given)
CCc1ccccc1NC(=O)CSc1nc2ncccc2o1
O=c1c2c3c(sc2n(Cc2ccccc2F)c(=O)n1-c1ccc(Cl)cc1)CCCC3
Cc1cccc(C(=O)N2CCC(N3CCN(Cc4ccc(F)cc4)C(=O)C3=O)CC2)c1
Cc1cc2c(cc3c(SCc4cccc(F)c4)nnc(C)n32)o1
Cc1ccc(CSc2nnc([C@@H](N)C(C)C)o2)cc1
Cc1c(C)c2c(cc(C)c3c(-c4ccc(Br)cc4)coc32)oc1=O
Cc1cccc(NC(=O)Cn2cc(S(=O)(=O)N3CCCC3)c(S(=O)(=O)N3CCCC3)c2)c1C
CCOC(=O)c1c(C)[nH]c(C)c1S(=O)(=O)NCC(=O)Nc1cccc(SC)c1
Cc1nn(C)c(C)c1S(=O)(=O)N(CC(=O)NCCc1ccc(Cl)cc1)c1ccc(C(C)C)cc1
COc1ccc(C)cc1NC(=O)C(=O)NCCc1sc(-c2cccc(C)c2)nc1C
CCn1cc(C(=O)NCCc2ccccc2)c(=O)c2cc(S(=O)(=O)N3CCCCCC3)ccc21
COc1ccc(-c2nc3ccccc3o2)cc1NC(=O)COc1ccc(C)c(C)c1
Cc1cccc(Cn2cc(S(=O)(=O)c3ccccc3)c(=O)c3cc(F)c(N4CCOCC4)cc32)c1
